In patent EP3298025B1, “NEW AMINO ACID SEQUENCES WITH MI[…] DERIVED FROM NAJA ATRA CARDIOTOXIN 1 (CTX-1)” (Università degli Studi di Parma, priority 2015, dated 2016):
Where “and” joins values, the source holds several entries; their conditions need not be identical. Identical values can stand only once. Part of at least one peptide drawing is inferred or uncertain, most often the ends. No end group written: not given here.

What was measured:
[1] = tested on: MRSA ATCC 43400; test: micro-dilution in liquid medium and transplant on solid medium, Gram-positive bacteria; format: cell-based, Staphylococcus aureus; settings: 2 hours at 37°C, transplant on agar
Procedure: For each bacterial strain 3-5 morphologically similar colonies from fresh cultures were taken and inoculated in Brain Heart Infusion broth, then incubated at 37°C in agitation at 225 r.p.m. for about 3-4 hours. Then the bacterial suspension was centrifuged at 1000 G for 20 minutes and the pellet resuspended in phosphate buffer pH 7, 10 mM. The turbidity of the bacterial suspension was measured using a spectrophotometer with absorbance of 600 nm; the range 0,08-0,13 equates to about 10^8 cfu/ml. The bacterial suspension was diluted 1:100 in phosphate buffer 10mM to obtain a bacterial concentration of about 10^6 cfu/ml. Within 30 minutes 50 µl of the suspension 10^6 cfu/ml were inoculated in each well of the microtiter plate, to obtain a bacterial concentration of about 5x10^5 cfu/ml.
The peptides ability to inhibit the bacterial growth in liquid cultures was tested. 50 µl of each peptides solutions of about 0.2-50 µM were added in microtiter plates with 96 wells with liquid culture medium and one of these bacterial strains: Staphylococcus aureus ATCC 25923, MRSA ATCC 43300, Streptococcus agalactiae ATCC 13813 and Enterococcus hirae ATCC 10541. After 2 hours of incubation at 37°C, bacterial suspensions were put on solid culture medium. Bacterial cultures were cultivated without peptides as growth control.
The bacterial suspension and differing peptides concentrations were put in contact for about 2 hours at 37°C. After this incubation, 20 µl from each well of the plate were transplanted on solid culture medium, Columbia agar with 5% of bovine erythrocytes for Gram-positive bacteria. The inoculum was evenly distributed on the agar medium with the aid of a sterile disposable handle. After an incubation time of 24 hours at 37°C, the bacterial colonies (cfu) were counted.

[2] = tested on: MRSA ATCC 43300; test: antimicrobial activity in presence of NaCl; format: cell-based, Staphylococcus aureus
Procedure: Peptides were tested in the ability to inhibit bacterial growth in liquid medium. 50 µl of peptides at a concentration […] E. coli ATCC 25922, Pseudomonas aeruginosa ATCC 27853 and Staphylococcus aureus methicillin resistant ATCC 43300. After 2 hours incubation at 37°C, bacteria were plated on solid culture medium. Bacterial cultures were cultivated without peptides as growth control.
The bacterial suspension and peptides at differing concentrations were put in contact for about 2 hours at 37°C. After this incubation, 20 µl from every well of the plate were transplanted on solid culture medium, McConkey agar for Gram-negative and Columbia agar with 5% of bovine erythrocytes for Gram-positive bacteria. The inoculum was evenly distributed on the agar medium using a single use sterile handle. After an incubation time of 24 hours at 37°C, the bacterial colonies (cfu) were counted.

[3] = tested on: MRSA ATCC 43300; test: antimicrobial activity in presence of Muller-Hinton 20%; format: cell-based, Staphylococcus aureus
Procedure: This example verifies the peptides antimicrobial activity in presence of a concentration of 20% of Muller-Hinton liquid medium, characterized by the presence of salts with high concentration.
Peptides were tested in the ability to inhibit bacterial growth in liquid medium. 50 µl of peptides at a concentration between 3.1 µg/ml (NCP-0=1.4µM; NCP-2=[…]; NCP-3=1.3 µM) and 100 µg/ml (NCP-0=46.3 µM; NCP-2=43.2 µM; NCP-3=41.6 µM) were added in microtiter plate wells with phosphate buffer 10 mM with Muller-Hinton liquid medium al the final concentration of 20% and one of these bacteria: E. coli ATCC 25922, Pseudomonas aeruginosa ATCC 27853, Staphylococcus aureus ATCC 25923 and Staphylococcus aureus methicillin resistant ATCC 43300. After 2 hours incubation at 37°C, bacteria were transplanted on solid culture medium. Bacterial cultures were cultivated without peptides as growth control.

[4] = tested on: Malassetia pachydermatis ATCC 14522; test: micro-dilution in liquid medium and transplant on solid medium, yeasts; format: cell-based; settings: 2 hours at 37°C, transplant on agar Sabouraud
Procedure: (§1) Candida albicans ATCC 10231, Candida glabrata ATCC 2001 and Malassetia pachydermatis ATCC 14522 were cultivated in Czapek-Dox broth (DIFCO) medium for 48-72 hours. On the day of the test the fungal culture was centrifuged at 1700G for 15 minutes and the pellet resuspended in phosphate buffer, then put in agitation on an electric vortex to disrupt fungal cell aggregations. The suspension was diluted to get a final optical density of 0,5 of the McFarland scale (about 1-5x10^6 cell/ml) (Branda J.A., Krantz A. Effect of yeast on automated cell counting. Am J Clin Pathol., 2006:126, 248-254.).
(§2) Peptides ability to inhibit the fungal growth in liquid cultures was tested. 50 µl of each peptides solutions of about 0.2-50 µM were added in microtiter plates with 96 wells with U-shaped bottom, with liquid culture medium and one of these fungi: Candida albicans ATCC 10231, Candida glabrata ATCC 2001 and Malassetia pachydermatis ATCC 14522. After 2 hours of incubation at 37°C, fungal suspensions were plated on solid culture medium, agar Sabouraud. Fungal cultures were cultivated without peptides as growth control.
(§3) the fungal suspension and peptides at differing concentrations were in contact for about 2 hours at 37°C. After this incubation, 20 µl from every well of the plate were transplanted on solid culture medium, agar Sabouraud. The inoculum was evenly distributed on the agar with the aid of a sterile disposable handle. After an incubation time of 24 hours at 37°C, the fungal colonies (cfu) were counted.

[5] = tested on: Candida glabrata ATCC 2001; test: as above; format: cell-based; settings: 2 hours at 37°C, transplant on agar Sabouraud
Procedure: as §1, §2, §3

[6] = tested on: Candida albicans ATCC 10231; test: as above; format: cell-based; settings: 2 hours at 37°C, transplant on agar Sabouraud
Procedure: as §1, §2, §3

[7] = 125 mM NaCl, peptide 12.5 µg/ml
[8] = 250 mM NaCl, peptide 12.5 µg/ml
[9] = 20% of Muller-Hinton medium, peptide 3.1 µg/ml
[10] = 20% of Muller-Hinton medium, peptide 6.3 µg/ml
[11] = 20% of Muller-Hinton medium, peptide 12.5 µg/ml
[12] = 20% of Muller-Hinton medium, peptide 100 µg/ml

Sequence	LD90 [1]	LD99 [1]	Antimicrobial activity (% to control) ([2]; 10 mM NaCl, peptide 12.5 µg/ml) [%]	Antimicrobial activity (% to control) ([2]; 10 mM NaCl, peptide 100 µg/ml) [%]	Antimicrobial activity (% to control) [2, 7] [%]	Antimicrobial activity (% to control) ([2]; 125 mM NaCl, peptide 100 µg/ml) [%]	Antimicrobial activity (% to control) [2, 8] [%]	Antimicrobial activity (% to control) ([2]; 250 mM NaCl, peptide 100 µg/ml) [%]	Antimicrobial activity (% to control) [3, 9] [%]	Antimicrobial activity (% to control) [3, 10] [%]	Antimicrobial activity (% to control) [3, 11] [%]	Antimicrobial activity (% to control) [3, 12] [%]	LD90 [4]	LD90 [5]	LD90 [6]	also measured
KLIPILSKTIPAIKNLFYKI [NCP-2]	> 100 µg/ml and > 42.3 µM	> 200 µg/ml and > 84.6 µM	0	0	0	0	0	0	0	0	0	0	2.95 µg/ml and 1.3 µM	> 200 µg/ml and > 68.4 µM	56.91 µg/ml and 25.6 µM	–
KLIWILSKTIPAIKNLFYKI [NCP-3]	6.09 µg/ml and 0.3 µM	8.34 µg/ml and 3.5 µM	100	100	96.75	100	37.5	100	0	50	97	100	4.156 µg/ml and 1.7 µM	30.08 µg/ml and 12.5 µM	12.43 µg/ml and 5.2 µM	Antimicrobial activity (% to control) ([3]; phosphate buffer without MH medium, peptide 3.1 µg/ml): 82.8%; Antimicrobial activity (% to control) ([3]; phosphate buffer without MH medium, peptide 6.3 µg/ml): 100%; Antimicrobial activity (% to control) ([3]; phosphate buffer without MH medium, peptide 12.5 µg/ml): 100%; Antimicrobial activity (% to control) ([3]; phosphate buffer without MH medium, peptide 100 µg/ml): 100%; LD99 [4]: 6.4 µg/ml and 2.7 µM; LD99 [5]: 32.26 µg/ml and 13.4 µM; LD99 [6]: 13.71 µg/ml and 5.7 µM
